We go through 54 compounds from ChEMBL document CHEMBL4888484, “Replenishing the malaria drug discovery pipeline: Screening and hit evaluation of the MMV Hit Generation Library 1 (HGL1) against asexual blood stage Plasmodium falciparum ,using a nano luciferase reporter read-out” (2022).

In all, about 150,000 compounds went through this assay and about 540 (0.36%) showed an effect of 50% or more. The list shows a part of the results.

The test has as its system Plasmodium falciparum. The experiment in a line: Primary screen in NF54 nanoGlo assay, in single point, at 2uM, 72h; a lower Z score goes with more inhibition. Type of test: functional, Erythrocyte. The following applies: timepoint 72 hour.
The % Inhibition is the change of the read-out against control, counted positive when it falls. Regarding `CC1(C)O[C@@H]2C[C@@](OCc3ccc(F)cc3F)(C(=O)NCCN3CCOCC3)CC(OCc3ccc(C#N)cc3)[C@@H]2O1` (stereo partly drawn), the “% Inhibition” value is 29% and the Z score is given as -3.95.
As to `CC(C)(CNC(=O)NC1CCN(C2CCCCC2O)CC1)C1=CCCC1` (stereo not drawn), the “% Inhibition” value is recorded as -10% and the Z score is recorded as 1.32.
`O=C(COc1cccc(Cl)c1Cl)c1ccc(N2CCCC2=O)cc1`: the “% Inhibition” value is on record as -12% and the Z score is 1.77.
The corresponding values for `Cc1nc[nH]c1C(=O)NCc1sc(C(C)C)nc1C` are 10% and -1.94.
The corresponding values for `COc1ccccc1-n1ncnc1[C@@H]1Cc2ccccc2S(=O)(=O)N1` are -13% and 1.12.
For the compound `Cc1nc(N2CCN(C(=O)[C@@H]3CCCO3)CC2)c2sccc2n1`, the “% Inhibition” value is listed as 14% and the Z score was -1.87.
For `O=C(Nc1ccc(Br)cc1Br)OC1CCCCC1`, the “% Inhibition” value was found to be 7% and the Z score was -1.17.
In the case of `C[C@H](NC(=O)c1cc[nH]c1C1CCC1)c1cn[nH]c1`, the “% Inhibition” value is on record as 1% and the Z score is on record as -0.1.
Turning to `COCC[C@]1(NS(=O)(=O)c2ccccc2)CCN(Cc2ccc(C(C)C)cc2)C1`, the “% Inhibition” value was -7% and the Z score is given as 0.84.
Turning to `Cc1nn(CC(C)C)c(Cl)c1CNCC[C@H]1CCCO1`, the “% Inhibition” value is given as -5% and the Z score is listed as 0.7.
The matching figures for `C[C@]1(O)CCN(C(=O)Cc2cccc(O)c2)C[C@H]1O`: -6% and 0.83.
Turning to `C[C@@]1(C(=O)N2CC(=O)N(C3CC3)C2)CCCNC1=O`, the “% Inhibition” value is -13% and the Z score was 1.07.
Consider `CC[C@@H](c1cccnc1)N(C)Cc1ccc2nonc2c1`, for which the “% Inhibition” value is given as -8% and the Z score is on record as 0.93.
Take `Cc1ccc(F)c(-n2cc(O)c(C(=O)N3CCOC4(CCC4)C3)n2)c1`: the “% Inhibition” value is given as -4% and the Z score came out at 0.49.
For the compound `CCOc1ncccc1C(=O)Nc1ccccc1-c1nnc(C)o1`, the “% Inhibition” value is -10% and the Z score is on record as 1.16.
For `CN1CCNC(=O)C12CCN(Cc1c[nH]c3ccccc13)CC2`, the “% Inhibition” value is -18% and the Z score was 1.85.
In the case of `Cc1cc(CCCOCc2ccccc2)nc(N)n1`, the “% Inhibition” value turned out to be 7% and the Z score was -1.05.
The matching figures for `O=C(Cn1ccnc1)N[C@H]1CCCOc2c1ccc1ccccc21`: -10% and 1.86.
The matching figures for `CN1C(=O)C[C@H](C(=O)NCc2ccc(Cl)cn2)[C@H]1c1cccnc1`: -12% and 1.66.
`Cc1nc(C(C)C)nc(N2CCN(C(=O)c3ccccc3Cl)CC2)c1Cc1ccccc1F`: the “% Inhibition” value is 2% and the Z score is -0.2.
Take `COCCC[C@H]1CCCCN1CCn1cccn1`: the “% Inhibition” value was -15% and the Z score was 1.69.
Consider `O=C(CN1C(=O)CCc2cc(S(=O)(=O)N3CCCC3)ccc21)NC1CC1`, for which the “% Inhibition” value is -5% and the Z score stood at 0.94.
Consider `O=C(N[C@H]1CC12CCC2)N1CC(Cc2ccco2)C1`, for which the “% Inhibition” value is -7% and the Z score is on record as 0.68.
For the compound `CC(C)n1c(=O)n(CC(=O)NCCCc2ccccc2)c2cc(S(=O)(=O)N3CCCC3)ccc21`, the “% Inhibition” value is recorded as -21% and the Z score is 2.49.
As for `Cc1ccnn1CCN1CC[C@H](O)CC(C)(C)C1`, the “% Inhibition” value was -14% and the Z score is given as 2.62.
Consider `CC(C)N1CCN([C@H]2CCOC3(CCN(S(=O)(=O)Cc4ccccc4)CC3)C2)CC1`, for which the “% Inhibition” value is recorded as -11% and the Z score came out at 1.22.
For the compound `C=CCN(CC=C)C(=O)c1cccc(F)c1C#N`, the “% Inhibition” value was -8% and the Z score stood at 0.95.
As for `Cc1nc(CN[C@H](C)c2ccc(Br)cc2)cs1`, the “% Inhibition” value is on record as -10% and the Z score worked out at 1.29.
On to `Cc1csc(CNC(=O)C2=NN(C)C(=O)CC2)n1`, for which the “% Inhibition” value turned out to be 6% and the Z score was -1.05.
In the case of `COc1ccc(-c2cc(C(=O)NCc3nnc4ccccn34)[nH]n2)cc1OC`, the “% Inhibition” value is given as -12% and the Z score is 1.49.
The corresponding values for `O=C(Nc1c(F)cccc1F)N1CCC(Oc2ccccn2)CC1` are -11% and 2.13.
Consider `O=C(NCc1cccc(F)c1)[C@H]1CC[C@H](Cn2cnnn2)CC1`, for which the “% Inhibition” value was -17% and the Z score amounted to 2.09.
For `O=C1Cc2cc(S(=O)(=O)Nc3ccccc3C(=O)NCc3ccco3)ccc2N1`, the “% Inhibition” value was -32% and the Z score was 3.76.
For the compound `COc1ccc(CNC(=O)CC2CCN(S(=O)(=O)c3ccc4c(c3)CCN4C(C)=O)CC2)cc1`, the “% Inhibition” value is listed as -17% and the Z score is listed as 1.62.
Turning to `Cc1ccc(N2CCN(Cc3nc(C(=O)NCc4ccccc4)co3)CC2)cc1`, the “% Inhibition” value is reported as -4% and the Z score was found to be 0.67.
In the case of `Cc1noc(C)c1CCC(=O)N1C[C@@H]2C[C@H]1C(=O)N2c1cccc(Cl)c1`, the “% Inhibition” value was -1% and the Z score is on record as 0.11.
Turning to `CC1CCN(C(=O)c2cnnn2C)C1c1ccc(C(F)(F)F)cc1` (stereo not drawn), the “% Inhibition” value is on record as -3% and the Z score is reported as 0.52.
The corresponding values for `O=C(Nc1ccccc1Cc1ccccc1)N1CCCN2CCC[C@H]2C1` are -1% and 0.1.
As for `Cn1nc(C(=O)NC(c2ccc(F)cc2)C2CCCO2)ccc1=O` (stereo not drawn), the “% Inhibition” value is recorded as -14% and the Z score was 1.78.
`c1cc2c(cc1-c1noc(C3CCNCC3)n1)OCO2`: the “% Inhibition” value stood at 0% and the Z score is given as 0.04.
With `CCCCS(=O)(=O)N[C@@H](CC)c1nccs1`, the “% Inhibition” value was -15% and the Z score stood at 1.48.
`O=C(NCc1nc2c(s1)COCC2)c1ccc2c(c1)CCCC2`: the “% Inhibition” value is reported as 38% and the Z score is -3.89.
As to `OC1CCN(c2ccc3nnnn3n2)CC1`, the “% Inhibition” value is -9% and the Z score came out at 1.33.
For `CCc1ccc(CNC(=O)c2ccc(-c3c(-c4ccc(C)cc4)ncn3C3CCCC3)o2)cc1`, the “% Inhibition” value was -9% and the Z score worked out at 1.69.
The matching figures for `O=C(Cc1ccc(F)cc1)NCC1=CCCN(Cc2c[nH]cn2)C1`: -1% and 0.15.
The matching figures for `COc1ccc(CN2CCCC23CCN(c2ncccn2)CC3)cc1O`: -19% and 1.88.
For the compound `O=S(=O)(NCc1ccc(Cn2ccnc2)cc1)c1ccc(F)cc1`, the “% Inhibition” value is listed as -2% and the Z score is listed as 0.25.
The matching figures for `Cn1cc(C(=O)N2CCC(C(=O)O)(n3ccnc3)CC2)c2ccccc21`: -3% and 0.27.
In the case of `C#CCN(CC#C)Cc1cnn(CC)c1`, the “% Inhibition” value turned out to be 5% and the Z score is listed as -0.53.
In the case of `Cc1noc(C(C)(C)NC(=O)Nc2nc(C(C)(C)C)ns2)n1`, the “% Inhibition” value is given as -4% and the Z score is reported as 0.64.
`O=C(c1cc(O)nc2ccccc12)N1CCN(c2cnccn2)CC1`: the “% Inhibition” value worked out at 4% and the Z score is given as -0.62.
The corresponding values for `CCOCCC(=O)N[C@H]1CC(=O)Nc2ccccc21` are 6% and -1.12.
The corresponding values for `O=C(Cc1ccccc1Br)Nc1ccc2c(c1)C(=O)NC2` are 4% and -0.66.
The matching figures for `CN1C(=O)N(C)C2=NNC(c3ccc(N(C)C)cc3)=N[C@@]2(c2c[nH]c3ccccc23)C1=O`: -8% and 1.04.
